This sample is rich in variants without activity.
B1: TPR 5TU (parent)
chain: GGAUCUUCUCGAUCUAACAAAAAAGACAAAUCUGCCACAAAGCUUGAGAGCAUCUUCGGAUGCAGAGGCGGCAGCCUUCGGUGGCGCGAUAGCGCCAACGUUCUCAACUAUGACACGCAAAACGCGUGCUCCGUUGAAUGGAGUUUAUCAUG

Variants of: B1
Assay: polymerase ribozyme fitness, log enrichment relative to wild type (log ratio); higher = more active; in vitro selection for triplet polymerase activity
Outline: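 Mutant libraries for each subunit of a heterodimeric triplet polymerase ribozyme were made by PCR and then transcribed. Each library underwent one round of in vitro selection in triplicate: annealing with a biotinylated primer, the partner subunit and triplets, frozen incubation at −7 °C, gel excision of extended constructs, streptavidin-bead capture and RT-PCR. Input and output libraries were Illumina-sequenced, and only genotypes with ≥10 input reads and ≥1 read per output were kept. Fitness is the logarithm, base 2, of genotype enrichment over wild-type enrichment, computed from inverse-variance-weighted replicate averages.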

Polymerase ribozyme fitness (log ratio), -3.92:
A41G G50C C125U A142G

Polymerase ribozyme fitness (log ratio), -3.78:
A41U G140A

Polymerase ribozyme fitness (log ratio), -1.41:
A41C U56A C87U

Polymerase ribozyme fitness (log ratio), -1.26:
A41G U104G C105U A122C

Polymerase ribozyme fitness (log ratio), -1.76:
A41U G80A A97U

Polymerase ribozyme fitness (log ratio), -0.896:
A41U G124U

Polymerase ribozyme fitness (log ratio), -2.65:
A41U U55A C85A A150U

Polymerase ribozyme fitness (log ratio), -4.12:
G42C A49U C63U

Polymerase ribozyme fitness (log ratio), -3.41:
A41G U44A U55A

Polymerase ribozyme fitness (log ratio), ≤ -4.2:
G42A A64G U102G
G42C G74A G92U C103G C116U
A41C U45A G68A C85A C118G C129U U144C U146A
G42A A52C U56A C72U G74U C75U C99G U134C
G42C U61G A91G G92U
G42A U78G C95U G112C
G42C G58C C96G
A41G C76U G84U C85A A97U G100A G140U
G42A G92A
G42A G92U
A41G A91U
G42C A52C A64G G80A C96A C108U A110G
G42U G59A C87U C149G
A41U U45A G58U G70A C87G C93U
A41G A49C G68U C76U C93U A97U
G42U C54U C75G G86U A91G C96A C125A
A41U C75G C93U G128U
G42A G48A C76U C85A A106G C125G U127G G141A
A41U C57A C96A C108A G143A
G42C C51G C54G U77G U82G C114U
G42A U61G A66G G83A G88C
G42A U61G A138C
A41G C79A G84A A89U
G42C G62U A64C G71A C79G C132G U139G U146G
G42C G62U C123G G124C
G42A G50A A66G G71U
G42A A113C C118U C125G
G42C C51G U56A G83A C105U A122U U148A
G42C U53G C75G C76A C85A U127C U144A
G42C U77G G86A G88U U145C
G42C G86C
G42C G86U
G42C G48C C85A
G42A A52U U53A G62C U82C U134C U146G
A41G G42A G92C U111C A113U C125G
G42U A66C
A41G C54U U78A G81A G100A G141U U148A
G42A C54G U56A G58A G94C
A41U A49C C85G G88U U102C A137U G141A
A41U C57A G68A C99A A113C U127A G143A
G42U A121U
A41U U55A G88U A142U
G42C G50U U61G G86A C114A
G42C G70U C87A C103G G141A
G42C C51G G94C C95U A97U U102C U148G
G42A A49C G84U A89G
G42U G48C G62C C96A G140U
G42A G50C U56A C87U C116U
G42U C57A
A41U U44A C54U C79G G83C A98U
A41G C57G G88C U90G G140C G143C
G42C G84C C85A G86A G92C
A41U G50A U53C C72A G86C U130C U139C U144G
A41G G67U C99U
A41G C69G U90G
G42A U56C G70U G88U A89C C96A U127A C149A
G42C C57U A73G G84C U101G
G42C U104G C118G G136A
A41C U44A G86U A97G U127G U135A
A41U G50A A66C G84U A120U C125G G126U
G42C C131G
G42C A89G G92A G126U G133A
G42C G50A G65A G71C G81A U90C
A41C U82A C93U C103A A106U U130G
G42U C87A A98U C99U G141C
G42A U45G C87U U109G
G42C C105G
A41G U61A G92A U135G C149G
A41U A52C G62U C87G A89G C95U C116A A142C U146A A150C
G42A C51U A121U
A41U C43U G59A U90G C116G C123U
A41U C76U G88C U130C
G42A A98G C99U A138G
G42C C51U C103G
A41C U55A C75U C93A C105A C108A A110U
A41G G50C U77G G94A U104C U111C A120U U148A
G42A A60C C103G
G42A G80C A106G C125G
G42C C96G A115G
G42A C85U C93G G133U G143A
A41C U77C G80A U102C U144G
G42C G46A A91U C96U A97C G117U
A41G G50C C85U C87A C103U C105G A115U
A41G U55C A60G G83U G84C C93U
G42C C43U G48A A49C C79A G86A G141C
G42C U61C G62U G83C A119G
G42C G86U U109G G141U
G42A U56A G59C C75G C99U C118U C132U
A41U G48C G59A C96A
A41G U53A C75A U82A
G42A G58C C79A C118U A142U
A41G G42U A91C C114U U135A
G42A G94U U135G
A41U G80C G88U C103A A107G
A41G G68A C75A A91G C96U U102G G141A
G42A A60G C87G
G42U C54U C85G G124U
G42U A64U G83A C87U U101G C116A
A41C U56A C87U U135G
A41U U45A C85A
G42C U53A C99U
A41U U45A U53C A122U C125A
G42C G62A G65U G83C G92A G141A
G42A C116G A150U
G42A A47C G83U A115G
G42C C95A C99G A107U
G42A C87G C118A
G42A U61A G86A G136C
G42C U55A A73U G83C G84A G88U
G42C C85G C123U
G42C U45A G48U A49C C75U C118G U144C
G42C A147G U151G
A41G A47U G88C C93G
G42C C103G
A41G G48U C57U G70C U78A G81A C96G A97G C118U C125G
G42C C43A U55G C57U A66C A137C G141C
G42A G143U
G42A G48A G68A G86U C132A
G42C C43U C54U A98G A120G
G42C U45G U146C
G42C U44A A52G G70U G83C
G42U C69G
G42C G88A U134A U146A
G42C G48C C87A G88C G141U
G42A C54A C76G C79A A142U
G42C G46A G74C A113U
G42C C96G C131A U148A
A41C U45G A47G G59A G65A U77C C87U C99U C105G
A41C U102C G143A C149G
A41U C51G G58U U61A G68A C96A A97C U102C
G42U C51U G58C A150C
G42A G46U G94A A115U U148C
G42C U55G U56C C69U C95G A142U U145C A150U
G42A G71A A91U A97U G100C
A41G G80C G84A C95U U135G
G42A U56A C93U
A41C U55A G133A
G42U C85A C99U C108G A110G
G42C C72G C93A A150G
G42A C87A
G42C U56A A89U C93G
G42A A91C
A41G C54G G68A G84A U104A C108U
G42A C69U C87G
G42C A49G C51U G58A G92A A115U A120U C131A U134A G140U U151G
G42C U61A U77G G86C U134G G140C
G42A C93A U102G U135A
G42C U55A A60U C87U A115U
A41U G84A G86A A120G G124U G128U

Polymerase ribozyme fitness (log ratio), -2.6:
A41U U82C C87U C125G G126C U144G

Polymerase ribozyme fitness (log ratio), -1.05:
A41U G92U

Polymerase ribozyme fitness (log ratio), -3.82:
G42A A52C

Polymerase ribozyme fitness (log ratio), -1.99:
A41U C76A

Polymerase ribozyme fitness (log ratio), 0.803:
A41U G58A A147U

Polymerase ribozyme fitness (log ratio), -0.347:
A41G A60G A97U

Polymerase ribozyme fitness (log ratio), -4.08:
G42U A60G U139C U148A

Polymerase ribozyme fitness (log ratio), -2.57:
A41G C51A G83A

Polymerase ribozyme fitness (log ratio), -4.19:
A41U C93A A122G
